The source of these data is ChEMBL document CHEMBL4888484, “Replenishing the malaria drug discovery pipeline: Screening and hit evaluation of the MMV Hit Generation Library 1 (HGL1) against asexual blood stage Plasmodium falciparum ,using a nano luciferase reporter read-out” (2022).

Structures are written as SMILES. About 540 (0.36%) of roughly 150,000 compounds showed an effect of 50% or more. The list shows a part of the results.

This experiment relates to Plasmodium falciparum. Put plainly: Primary screen in NF54 nanoGlo assay, in single point, at 2uM, 72h; a lower Z score goes with more inhibition. Particulars: timepoint 72 hour. It counts as functional, Erythrocyte.
Usually % Inhibition stands for the drop in the measured response relative to a control, in per cent. Take `COCCOCc1nc(C2CCN(C(=O)Cc3ccccc3)CC2)no1`: the “% Inhibition” value was 0% and the Z score is on record as -0.04.

Regarding `CCOC(=O)[C@H](NC(=O)c1ccc(C2(C#N)CC2)cc1)c1c(C)nn(-c2ccccc2)c1C`, the “% Inhibition” value is given as -8% and the Z score is reported as 1.48.

As to `Cc1ccc2nc(NC(=O)Cn3ncccc3=O)sc2c1`, the “% Inhibition” value is recorded as -16% and the Z score is recorded as 1.87.

`CC(C)CN1CC[C@H](N2CCN(c3cccc(C(F)(F)F)c3)CC2)[C@H](CCC(=O)NCCO)C1`: the “% Inhibition” value amounted to 7% and the Z score is listed as -0.9.

As for `Fc1cccc(-n2cc(-c3nc4c(cnn4Cc4ccncc4)[nH]3)cn2)c1`, the “% Inhibition” value is -8% and the Z score came to 1.15.

`Cc1ccc(-c2cc(C(=O)NCc3ccc(F)cc3)ccn2)s1`: the “% Inhibition” value is recorded as -13% and the Z score was found to be 1.72.

Take `COc1ccc(-c2cnc3ncnn3c2N2CCN(S(=O)(=O)c3ccccc3OC(F)(F)F)CC2)cc1OC`: the “% Inhibition” value is listed as -12% and the Z score is listed as 1.19.

As to `Cn1cc(C=Cc2ccncn2)c(-c2ccc(C#N)cc2)n1`, the “% Inhibition” value was found to be 7% and the Z score is -0.92.

In the case of `CC(Cn1ncc2ccccc2c1=O)NS(=O)(=O)CC1CCOC1` (stereo not drawn), the “% Inhibition” value was 31% and the Z score is -3.46.

Turning to `Cc1cc(NC(=O)CCc2c(C)noc2C)n(-c2ncnc3nc[nH]c23)n1`, the “% Inhibition” value is 2% and the Z score is given as -0.33.

As to `CNC(=O)NCC(=O)N1CCC(c2cc(C)ccc2C)CC1`, the “% Inhibition” value is listed as -5% and the Z score is on record as 0.74.

With `CC(=O)Nc1nc2ccc(NC(=O)NC[C@H]3CCCO3)cc2s1`, the “% Inhibition” value is given as -4% and the Z score worked out at 0.61.

Turning to `Cc1cc(C)c(C(=O)N2CC[C@@]3(CCCN(CCCc4ccccc4)C3)C2)c(=O)[nH]1`, the “% Inhibition” value was 2% and the Z score is given as -0.28.

Turning to `N#CC1(OC(=O)C2CC3CCC2C3)CCC1` (stereo not drawn), the “% Inhibition” value is listed as -8% and the Z score amounted to 0.86.

Take `COc1ccc(F)cc1-c1ccc2nc(N)sc2c1`: the “% Inhibition” value was determined as 11% and the Z score was -1.48.

Consider `O=c1[nH]nc2ccc(N3CC4CCC3C4)nn12` (stereo not drawn), for which the “% Inhibition” value was -3% and the Z score was 0.54.

For the compound `CN(CC1(C)COC1)C(=O)c1ccc(CO)cc1`, the “% Inhibition” value is -3% and the Z score is 0.37.

On to `Cc1c(Cl)cc(C(=O)N(C)C2CCS(=O)(=O)CC2)cc1Cl`, for which the “% Inhibition” value was -14% and the Z score stood at 1.76.

For `Cc1ccc2c(c1)C(NC(=O)N(C)Cc1cccnc1)C(C)C2` (stereo not drawn), the “% Inhibition” value is recorded as -13% and the Z score stood at 1.69.

Consider `COc1cccc(CN2CC=C(C(=O)N3CCN(c4ccccn4)CC3)CC2)c1`, for which the “% Inhibition” value is -11% and the Z score was found to be 1.66.

For the compound `CC(C)c1ccc(-c2cc(C(F)(F)F)n3nc(C(=O)N4N=C5/C(=C/c6ccc(Cl)cc6)CCCC5C4c4ccc(Cl)cc4)cc3n2)cc1` (stereo not drawn), the “% Inhibition” value was -31% and the Z score was 3.66.

Take `CCN(C(=O)CCn1nnc2ccccc2c1=O)c1ccc2[nH]ccc2c1`: the “% Inhibition” value is on record as -2% and the Z score came out at 0.25.

Consider `Cn1nnc2c(N3CC(C(=O)NC4CCCCCC4)C3)ncnc21`, for which the “% Inhibition” value was -6% and the Z score is 0.88.

On to `CC(C)(C)c1ccc(C(=O)C(=O)N2CCCN(C3CC3)CC2)cc1`, for which the “% Inhibition” value is listed as -9% and the Z score came to 0.84.

Consider `COc1nn(C)cc1NC(=O)NCc1cccc(Cl)c1OC`, for which the “% Inhibition” value is given as -1% and the Z score was determined as 0.09.

Regarding `Cc1ccsc1[C@@H](O)CNC(=O)CN1C(=O)CCC1=O`, the “% Inhibition” value is reported as -14% and the Z score is on record as 2.35.

Take `COc1cc(OC)cc(C(=O)N2CCN(c3cc(N4CCN(C)CC4)ncn3)CC2)c1`: the “% Inhibition” value is listed as -23% and the Z score turned out to be 2.01.

For the compound `CC(C)=CCN1CCC(NC(=O)C(=O)Nc2cc(C)ccc2F)CC1`, the “% Inhibition” value is listed as -14% and the Z score is on record as 1.75.

Regarding `Cc1cnn(C2CN(CCOCC(F)(F)F)C2)c1`, the “% Inhibition” value is recorded as 0% and the Z score is recorded as 0.06.

As to `O=c1[nH]nc([C@H]2CCCN(S(=O)(=O)N3CCCC3)C2)n1-c1ccccc1`, the “% Inhibition” value is recorded as -7% and the Z score is 0.92.

As to `CCN(CC)C(=O)Cn1cc(C(=O)NCCOc2ccccc2)nn1`, the “% Inhibition” value is -20% and the Z score amounted to 1.76.

As to `C[C@@H](c1ccc(F)cc1)n1c(CN2CCN(C)CC2)n[nH]c1=O`, the “% Inhibition” value is -5% and the Z score was 1.

Take `O=c1ccccn1CCN1CCN(C[C@H](O)c2ccccc2F)CC1`: the “% Inhibition” value came out at 1% and the Z score was -0.13.

In the case of `CC(=O)N1CC[C@H](CN(C)Cc2csc(-c3ccc(S(C)(=O)=O)cc3)n2)C1`, the “% Inhibition” value is reported as -3% and the Z score was 0.23.

For `CCCN(CCC)C(=O)CN1CCN(Cc2ccc3c(c2)CCO3)CC1`, the “% Inhibition” value is given as -11% and the Z score was 1.43.

Turning to `CN(C)C1(CNC(=O)CCC(F)(F)F)CCCC1`, the “% Inhibition” value is given as -24% and the Z score was found to be 2.12.

With `N#CCOc1cccc(Cl)c1Cl`, the “% Inhibition” value is on record as -6% and the Z score was found to be 0.93.

In the case of `O=C(CCN1CCc2ccccc21)Nc1ccc2c(c1)OCCO2`, the “% Inhibition” value is listed as -9% and the Z score is 1.71.

Regarding `NC(=O)c1cccnc1N1CCC(Oc2ccc3ccccc3c2)(C(=O)O)CC1`, the “% Inhibition” value was -4% and the Z score came out at 0.73.

For `CCC[C@H]1CN(c2nc3c(cc2C(=O)O)CCC3)C[C@@H]1N`, the “% Inhibition” value was -3% and the Z score came to 0.53.

For the compound `Cc1ccc(F)c(S(=O)(=O)N2CCOc3nc(C)ccc32)c1`, the “% Inhibition” value is recorded as 8% and the Z score was -1.46.

`COC(=O)c1c(-c2ccc(C(=O)NC3CC(C)(C)NC(C)(C)C3)cc2)cnn1C`: the “% Inhibition” value turned out to be 8% and the Z score is given as -1.57.

As for `CCCc1noc(CCC(=O)N2CCCC[C@@H]2C)n1`, the “% Inhibition” value is given as -15% and the Z score was found to be 1.54.

Regarding `COc1cc(NC(C)=O)c(C(=O)c2nccc3cc(OC)c(OC)cc23)cc1OC`, the “% Inhibition” value came out at 6% and the Z score is on record as -0.69.

As to `CCn1cc(Br)cc1C(=O)N1CCNC[C@@H]1C`, the “% Inhibition” value is -8% and the Z score turned out to be 0.77.

In the case of `CC1(C)CN(Cc2noc(C3CC3)n2)CCO1`, the “% Inhibition” value was 0% and the Z score is -0.05.

Regarding `Cc1c(Cl)cncc1NC(=O)NC[C@H]1CCOC2(CCC2)C1`, the “% Inhibition” value is on record as -8% and the Z score worked out at 1.35.

As to `C[C@@H]1CN(C(=O)c2cccn(C)c2=O)CC[C@@]1(O)C1CCOCC1`, the “% Inhibition” value is on record as -11% and the Z score amounted to 1.8.

For `CCn1nnc2c(N3CC(C(=O)NCc4cccnc4)C3)ncnc21`, the “% Inhibition” value is 1% and the Z score was -0.1.

In the case of `N#Cc1c(-c2ccccc2)c2c([nH]c1=O)CCCC2`, the “% Inhibition” value was -12% and the Z score is given as 1.6.

Take `Cc1cccc([C@H](CNC(=O)N(C)CCC2(O)CCCC2)N(C)C)c1`: the “% Inhibition” value is -14% and the Z score was found to be 1.74.

As to `Cc1ccc(-c2csc(Nc3ccc(Cl)cn3)n2)o1`, the “% Inhibition” value is -4% and the Z score stood at 0.46.

On to `Cc1ccc(Oc2ccc(N[C@H]3CCc4ccc(F)cc43)cc2)nn1`, for which the “% Inhibition” value is listed as -2% and the Z score is given as 0.26.

For the compound `Cn1c(-c2c(C(=O)N3CCOCC3)nc3ccccn23)nc2ccccc21`, the “% Inhibition” value was -5% and the Z score was determined as 0.66.
